Test results: the supplement of paper PMC4166925
± gives the standard deviation of the averaged measurements. Over roughly 33,000 sequences, “E-score (dimensionless, -0.5 to 0.5)” has its median near -0.046; the highest 2% begin near 0.36. The list shows a part of the results.

Tested on: T1, SpTbr T-box DNA-binding domain (GST fusion)
T1 sequence: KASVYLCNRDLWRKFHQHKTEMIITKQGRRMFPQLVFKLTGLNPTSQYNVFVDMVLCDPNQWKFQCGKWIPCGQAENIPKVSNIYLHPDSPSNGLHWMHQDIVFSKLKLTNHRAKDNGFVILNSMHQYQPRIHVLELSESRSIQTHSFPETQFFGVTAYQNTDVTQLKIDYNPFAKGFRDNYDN
Assay: PBM E-score of 8-mer (E-score (dimensionless, -0.5 to 0.5)); Tbr is Tbrain of the sea star Patiria miniata (Pm) or the sea urchin Strongylocentrotus purpuratus (Sp); higher = stronger binding preference; most listed sequences are background and not binding sites
Conditions: the construct has about 5 more residues each side
Summary of the method: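 Primer extension turned Universal Agilent oligonucleotide arrays double-stranded. They were incubated with 200 nM protein in PBS (pH 7.5); the protein was a GST-fused Tbr T-box DNA-binding domain expressed in BL21 E. coli at 20 °C and purified on glutathione. Every ungapped 8-mer was scored from the scanned, quantified probe intensities, and the Universal PBM Analysis Suite gave each an enrichment E-score averaged over duplicate arrays.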

Row | Sequence | PBM E-score of 8-mer
1 | CCACGCTC | 0.0778 ± 0.052
2 | GCGAAGTA | 0.31 ± 0.035
3 | ACCGGGGC | -0.0204 ± 0.065
4 | CACGGTGG | 0.0119 ± 0.061
5 | AAGCGGAC | -0.128 ± 0.03
6 | ATTCGCTG | -0.13 ± 0.03
7 | AACCGCTT | -0.0779 ± 0.0043
8 | ATCGGGAG | -0.07849 ± 0.00052
9 | GACCGCGC | 0.121 ± 0.057
10 | CGAGAAAC | 0.0745 ± 0.086
11 | ACCAATCA | -0.0511 ± 0.01
12 | GTCTTTCA | -0.0162 ± 0.053
13 | ACAGACAT | 0.0887 ± 0.022
14 | ACGTTTGC | 0.0266 ± 0.034
15 | TACCATGA | -0.164 ± 0.056
16 | AGGGCCCG | -0.185 ± 0.032
17 | CTGATAAG | -0.0825 ± 0.038
18 | CAATTAGC | -0.00923 ± 0.072
19 | CCGTCATA | 0.0436 ± 0.0011
20 | ACACTTTA | 0.324 ± 0.043
21 | ACGTCGAT | 0.0227 ± 0.016
22 | ACTAACTC | -0.077 ± 0.047

Row | Sequence | PBM E-score of 8-mer
23 | ACTTGTCT | 0.0811 ± 0.037
24 | ATTCTCCA | -0.0182 ± 0.053
25 | AGACGGGA | -0.0612 ± 0.086
26 | CCCCCACA | -0.0123 ± 0.15
27 | CCACGCCC | 0.0644 ± 0.011
28 | CTGCCGAC | 0.108 ± 0.02
29 | ACATAAAA | 0.0349 ± 0.044
30 | AAATCAGA | -0.217 ± 0.051
31 | CAACCTGG | 0.0493 ± 0.039
32 | CCCCGGAA | -0.115 ± 0.052
33 | ATCTTTCG | -0.0388 ± 0.014
34 | AACAGTGG | 0.016 ± 0.025
35 | CCTACCCC | -0.191 ± 0.043
36 | GATAGTAC | -0.0487 ± 0.028
37 | GTGCTGGA | -0.0318 ± 0.049
38 | CAGGCACA | 0.166 ± 0.047
39 | CTAGATGA | -0.231 ± 0.044
40 | AGAGGTGC | 0.394 ± 0.014
41 | GAGGTTTA | -0.0525 ± 0.082
42 | GTAATAAC | -0.074 ± 0.074
43 | ACGCTAAC | 0.253 ± 0.015
44 | GCGACCGC | 0.151 ± 0.04

Row | Sequence | PBM E-score of 8-mer
45 | ATGCCGGC | -0.17 ± 0.081
46 | GCAAGATA | -0.0343 ± 0.043
47 | CCTGTGGA | -0.0237 ± 0.047
48 | GTAGCAGA | -0.142 ± 0.023
49 | CCCCCAAC | 0.0527 ± 0.0089
50 | ACCCCGCG | 0.21 ± 0.0021
51 | AAGGAAGC | -0.0905 ± 0.043
52 | TAGAACCA | -0.141 ± 0.074
53 | GACGCCAC | 0.196 ± 0.066
54 | ATCGGACC | -0.225 ± 0.061
55 | AAGCGTTA | 0.161 ± 0.089
56 | ATTTAGAG | -0.163 ± 0.16
57 | GCCCTTCC | -0.0891 ± 0.017
58 | CAATTTGC | 0.0958 ± 0.14
59 | ACCTCAGT | 0.119 ± 0.043
60 | AGTGAGTC | 0.0547 ± 0.03
61 | CCTCAAAG | -0.0502 ± 0.041
62 | AGCAGTGA | 0.013 ± 0.096
63 | AGGGTCGA | -0.0496 ± 0.012
64 | AACTGTCT | 0.104 ± 0.0095
65 | CCGTTTAG | -0.0242 ± 0.015
66 | ATGGTGGA | -0.346 ± 0.005

Row | Sequence | PBM E-score of 8-mer
67 | GCTGGTCA | -0.00922 ± 0.032
68 | ATATGCAG | 0.0798 ± 0.037
69 | AGTCTACA | -0.0855 ± 0.012
70 | CAACTGTG | 0.251 ± 0.031
71 | AGGGGGCG | 0.0912 ± 0.057
72 | ATACTCAA | -0.179 ± 0.05
73 | CTCCAACA | 0.138 ± 0.023
74 | CATACGAC | -0.083 ± 0.046
75 | CATTAGGC | -0.0383 ± 0.089
76 | AGTTCAAC | 0.0179 ± 0.028
77 | CATGCCGA | -0.124 ± 0.041
78 | CTCTATAC | -0.255 ± 0.095
79 | AGCGCTAA | 0.3148 ± 0.0026
80 | AAGTTAAG | -0.288 ± 0.047
81 | ATTAGTGG | 0.0734 ± 0.019
82 | ACCGTTTA | 0.00252 ± 0.042
83 | CAATCCCC | -0.142 ± 0.016
84 | AGACCTAA | -0.0799 ± 0.046
85 | TCTAGAAA | -0.0958 ± 0.045
86 | TAATACGA | -0.131 ± 0.044
